Numbering of substitutions follows the chain as printed. Names may count otherwise. No constants are given. Whether binding was seen depends on the method and setting. Some results given as binding are weak or reduced against the parent protein; the word gives no strength.
Columns and labels:
[1] = target: T1, SMC6 peptide aa970-994 (S. pombe) (UniProt P53692); test: ELISA; SMC6 peptides (library covering aa875-1024) pre-bound to ELISA plates, tested against Nse4(1-150) and control human TRF2 protein
T1 sequence (peptide): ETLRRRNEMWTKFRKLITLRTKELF

[2] = target: T2, SMC6 peptide aa960-984 (S. pombe) (UniProt P53692); test: as above
T2 sequence (peptide): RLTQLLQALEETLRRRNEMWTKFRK

[3] = target: T3, Nse5-Nse6 (Gal4BD-Nse5 with non-hybrid Nse6) (S. pombe) (UniProt O94668+O13688); test: two-hybrid; 3Y2H: Gal4AD-SMC6 + Gal4BD-Nse5 + non-hybrid Nse6 (p416ADH1-Nse6); -L,T,U,H plates with 3 mM 3-aminotriazole
T3 sequence 1: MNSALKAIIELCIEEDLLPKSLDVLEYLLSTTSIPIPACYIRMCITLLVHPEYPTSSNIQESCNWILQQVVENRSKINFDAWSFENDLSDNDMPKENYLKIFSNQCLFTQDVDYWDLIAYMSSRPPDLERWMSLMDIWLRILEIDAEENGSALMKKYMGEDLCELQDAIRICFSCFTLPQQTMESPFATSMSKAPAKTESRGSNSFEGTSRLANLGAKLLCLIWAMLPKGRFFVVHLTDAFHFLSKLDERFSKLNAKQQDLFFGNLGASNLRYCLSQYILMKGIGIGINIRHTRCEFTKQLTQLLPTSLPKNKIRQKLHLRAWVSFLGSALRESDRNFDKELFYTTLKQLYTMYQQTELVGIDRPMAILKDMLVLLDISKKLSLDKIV
T3 sequence 2: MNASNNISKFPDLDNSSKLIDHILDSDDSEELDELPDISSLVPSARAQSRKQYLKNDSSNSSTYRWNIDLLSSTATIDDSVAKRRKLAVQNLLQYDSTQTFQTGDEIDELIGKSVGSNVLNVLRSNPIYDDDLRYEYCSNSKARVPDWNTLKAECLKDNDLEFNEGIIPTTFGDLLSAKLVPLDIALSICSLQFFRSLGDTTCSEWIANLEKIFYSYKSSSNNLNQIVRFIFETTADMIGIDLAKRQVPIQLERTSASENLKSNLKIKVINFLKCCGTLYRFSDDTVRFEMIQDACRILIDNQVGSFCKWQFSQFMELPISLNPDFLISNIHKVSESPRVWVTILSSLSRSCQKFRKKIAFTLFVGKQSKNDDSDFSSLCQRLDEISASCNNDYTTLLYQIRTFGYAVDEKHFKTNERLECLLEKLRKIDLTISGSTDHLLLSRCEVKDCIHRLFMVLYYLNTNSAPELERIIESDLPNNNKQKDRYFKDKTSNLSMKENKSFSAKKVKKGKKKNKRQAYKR

Gal4BD-Nse4 (S. pombe) = target: T4, Gal4BD-Nse4 (S. pombe) (UniProt Q6BDR8); test: two-hybrid; classical Y2H: Gal4BD-Nse4 + Gal4AD-Nse3; -L,T,H plates with 10 mM 3-aminotriazole
T4 sequence: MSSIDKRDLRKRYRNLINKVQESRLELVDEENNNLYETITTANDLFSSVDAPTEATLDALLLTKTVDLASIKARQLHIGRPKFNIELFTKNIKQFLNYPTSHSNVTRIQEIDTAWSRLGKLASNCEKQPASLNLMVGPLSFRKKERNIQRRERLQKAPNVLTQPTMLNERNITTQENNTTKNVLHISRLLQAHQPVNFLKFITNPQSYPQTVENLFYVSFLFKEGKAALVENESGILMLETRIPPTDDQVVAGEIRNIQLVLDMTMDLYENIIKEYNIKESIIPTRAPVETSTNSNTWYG

[4] = target: T5, Gal4BD-Nse4 L62C (S. pombe) (UniProt Q6BDR8); test: as above
T5 sequence: T4 sequence with L62C

[5] = target: T6, Gal4BD-Nse4 T65R (S. pombe) (UniProt Q6BDR8); test: as above
T6 sequence: T4 sequence with T65R

[6] = target: T7, Gal4BD-Nse4 L68C (S. pombe) (UniProt Q6BDR8); test: as above
T7 sequence: T4 sequence with L68C

[7] = target: T8, pGBKT7-Nse3(aa1-328) (S. pombe) (UniProt Q9Y7U4); test: two-hybrid; classical Y2H of the Nse1-Nse3 binary interaction (Fig. 4A, columns 9 and 10)
T8 sequence: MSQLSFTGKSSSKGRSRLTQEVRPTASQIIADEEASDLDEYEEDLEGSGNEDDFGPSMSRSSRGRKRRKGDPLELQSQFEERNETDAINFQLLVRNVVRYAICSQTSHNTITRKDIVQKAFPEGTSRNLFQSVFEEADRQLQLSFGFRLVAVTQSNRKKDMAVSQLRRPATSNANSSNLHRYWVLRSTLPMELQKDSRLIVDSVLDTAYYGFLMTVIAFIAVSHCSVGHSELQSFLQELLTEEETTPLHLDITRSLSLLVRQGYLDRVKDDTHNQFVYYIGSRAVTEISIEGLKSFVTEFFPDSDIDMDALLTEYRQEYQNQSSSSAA

[8] = target: T8, pGBKT7-Nse3(aa1-328) (S. pombe); test: two-hybrid; 3Y2H of the Nse1-Nse3-Nse4 trimer: hybrid Nse3 and Nse4 with non-hybrid Nse1 wild type (Fig. 4A, columns 5 and 6; Fig. 5A, column 6)

B1: Nse4(1-150) (domain or fragment, UniProt Q6BDR8 1-150)
chain: MSSIDKRDLRKRYRNLINKVQESRLELVDEENNNLYETITTANDLFSSVDAPTEATLDALLLTKTVDLASIKARQLHIGRPKFNIELFTKNIKQFLNYPTSHSNVTRIQEIDTAWSRLGKLASNCEKQPASLNLMVGPLSFRKKERNIQR
For B1, the binding [1] was “binds weakly” and the binding [2] was “binds weakly”.

B2: Gal4AD-SMC6 R975A (protein, UniProt P53692 1-1140)
chain: MTTELTNVSLEEAITEKTSENRRKRDSDVLQTEEVDLSNVKRIRASRNQDNRPERQSRLQRSSSLIEQVRGNEDGENDVLNQTRETNSNFDNRVGVIECIHLVNFMCHDSLKINFGPRINFVIGHNGSGKSAILTGLTICLGAKASNTNRAPNMKSLVKQGKNYARISVTISNRGFEAYQPEIYGKSITIERTIRREGSSEYRLRSFNGTVISTKRDELDNICDHMGLQIDNPMNILTQDTARQFLGNSSPKEKYQLFMKGIQLKQLEENYSLIEQSLINTKNVLGNKKTGVSYLAKKEEEYKLLWEQSRETENLHNLLEQKKGEMVWAQVVEVEKELLLAEKEFQHAEVKLSEAKENLESIVTNQSDIDGKISSKEEVIGRAKGETDTTKSKFEDIVKTFDGYRSEMNDVDIQKRDIQNSINAAKSCLDVYREQLNTERARENNLGGSQIEKRANESNNLQREIADLSEQIVELESKRNDLHSALLEMGGNLTSLLTKKDSIANKISDQSEHLKVLEDVQRDKVSAFGKNMPQLLKLITRETRFQHPPKGPMGKYMTVKEQKWHLIIERILGNVINGFIVRSHHDQLILKELMRQSNCHATVVVGKYDPFDYSSGEPDSQYPTVLKIIKFDDDEVLHTLINHLGIEKMLLIEDRREAEAYMKRGIANVTQCYALDPRNRGYGFRIVSTQRSSGISKVTPWNRPPRIGFSSSTSIEAEKKILDDLKKQYNFASNQLNEAKIEQAKFKRDEQLLVEKIEGIKKRILLKRREVNSLESQELSVLDTEKIQTLERRISETEKELESYAGQLQDAKNEEHRIRDNQRPVIEEIRIYREKIQTETQRLSSLQTELSRLRDEKRNSEVDIERHRQTVESCTNILREKEAKKVQCAQVVADYTAKANTRCERVPVQLSPAELDNEIERLQMQIAEWRNRTGVSVEQAAEDYLNAKEKHDQAKVLVARLTQLLQALEETLRRANEMWTKFRKLITLRTKELFELYLSQRNFTGKLVIKHQEEFLEPRVYPANRNLATAHNRHEKSKVSVQGLSGGEKSFATICMLLSIWEAMSCPLRCLDEFDVFMDAVNRLVSIKMMVDSAKDSSDKQFIFITPQDMGQIGLDKDVVVFRLSDPVVSSSALPPSTAP
With B2 the binding [3] was “binds”.

B3: Gal4AD-Nse3 (protein, UniProt Q9Y7U4 1-328)
chain: T8 sequence
For B3, the binding (Gal4BD-Nse4 (S. pombe)) was “binds”, the binding [4] was “binds” and the binding [5] was “binds”. For the same binder, the binding [6] was “binds”.

B4: pOAD-Nse1(aa1-232) (protein, UniProt Q53EK2 1-232)
chain: MEKERQDGLSDKHKFILQYIMCRTAGVDNEQVRELVQEQYGETATVEDVINELNNSLHNFDFKIKRVQDQLDGRLTLHFQNLSGDPVSQMATPYPPVQIELMRKIIEWIMKCDDYQYSLTTLQIQKLSRKEMGLAPSVIESHLHTFERDGWLRQREGIWTFTNHALAELDAYLHNEYESNLYECNACREIVIAGYVCDCGYCLHVYCCKHLAHVNCINCNTPWANATVIGRW
With B4 the binding [7] was “binds”.

B5: pGADT7-Nse4(aa1-300)/del87-91 (protein, UniProt Q6BDR8)
chain: MSSIDKRDLRKRYRNLINKVQESRLELVDEENNNLYETITTANDLFSSVDAPTEATLDALLLTKTVDLASIKARQLHIGRPKFNIEIKQFLNYPTSHSNVTRIQEIDTAWSRLGKLASNCEKQPASLNLMVGPLSFRKKERNIQRRERLQKAPNVLTQPTMLNERNITTQENNTTKNVLHISRLLQAHQPVNFLKFITNPQSYPQTVENLFYVSFLFKEGKAALVENESGILMLETRIPPTDDQVVAGEIRNIQLVLDMTMDLYENIIKEYNIKESIIPTRAPVETSTNSNTWYG
In the case of B5, the binding [8] is reported as “binds”.

B6: pOAD-Nse1(aa1-232) Q18A, M21A (protein, UniProt Q53EK2 1-232)
chain: B4 chain with Q18A, M21A
B6 was tested, and the binding [7] was “no binding”.
